Results on one molecule are retold here after patent publication US11149077B2, “Targeted therapeutics based on engineered proteins for tyrosine kinases receptors, including IGF-IR” (BRISTOL-MYERS SQUIBB COMPANY, priority 2006, dated 2021).

In assay [1] the test system is Rh41 human rhabdomyosarcoma cells. Kind of assay: Cellular proliferation in Rh41 cells, [3H]-thymidine incorporation. In kind it is cell-based. On the procedure: (§1) Proliferation was evaluated by incorporation of [3H]-thymidine into DNA after a 72 hour exposure to reagents. Rh41 cells were plated at a density of 3500 and H929 at 8000 cells/well, respectively, in 96-well microtiter plates and 24 hours later they were exposed to a range of drug concentrations. After 72 hours incubation at 37° C., cells were pulsed with 4 μCi/ml [3H] thymidine (Amersham Pharmacia Biotech, UK) for 3 hours, trypsinized, harvested onto UniFilter-96, GF/B plates (PerkinElmer, Boston, Mass.) and scintillation was measured on a TopCount.NXT (Packard, Conn.).

Assay [2] relates to H929 human multiple myeloma cells. In words: Cellular proliferation in H929 cells, [3H]-thymidine incorporation. In kind it is cell-based. The following applies: H929 Assay. The procedure:
as §1

B1: 385A08-Fc: 385A08 (SEQ ID NO: 226) joined by a spacer to an Fc fragment (Hinge-CH2-CH3), expressed in pichia (protein)
chain: GVSDVPRDLEVVAATPTSLLISWSARLKVARYYRITYGETGGNSPVQEFTVPKNVYTATISGLKPGVDYTITVYAVTRFRDYQPISINYRTEIDKPSQDPGS[human IgG1 Fc with changes not written out]
On to B1, for which the “[^3H] incorporation” value in assay [1] (Rh41 Trial 1, 0.016 nM) amounted to 101.2; in assay [1] (Rh41 Trial 1, 0.08 nM), 102.9; in assay [1] (Rh41 Trial 1, 0.4 nM), 97.1; in assay [1] (Rh41 Trial 1, 2.0 nM), 77.9; in assay [1] (Rh41 Trial 1, 10.0 nM), 61.9; in assay [1] (Rh41 Trial 1, 50 nM) it was 54.9. For the same molecule, the “[^3H] incorporation” value in assay [1] (Rh41 Trial 2, 0.016 nM) is 102.5; in assay [1] (Rh41 Trial 2, 0.08 nM), 98.4; in assay [1] (Rh41 Trial 2, 0.4 nM) it was 94.6; in assay [1] (Rh41 Trial 2, 2.0 nM), 78.6; in assay [1] (Rh41 Trial 2, 10.0 nM) it was 59.3; in assay [1] (Rh41 Trial 2, 50 nM), 52.1. For the same molecule, the “[^3H] incorporation” value in assay [2] (0.016 nM) was 80.1; in assay [2] (0.08 nM), 57.1; in assay [2] (0.4 nM), 32.0; in assay [2] (2.0 nM), 20.6; in assay [2] (10.0 nM), 18.4; in assay [2] (50 nM) it was 20.2. For the same molecule, the maximum inhibition in assay [1] (Rh41 cell line) came out at 91%.
